# Assay results from PubChem BioAssay AID588342 (National Center for Advancing Translational Sciences (NCATS), 2011).
# Hit rate of the full screen: of about 360,000 compounds, about 25,000 (6.9%) were called active. The inconclusive results got no clear call from the source; some entries with a clear call stand among them for comparison. Calls come from the whole dose curve; as a rule, active = well fitted inhibition curve with a large enough effect; inconclusive = small, poorly fitted or top-dose-only effect; inactive = flat fitted curve, though single readings scatter. Where the call is inconclusive, the potency comes from a doubtful curve fit.
# Biological target: Luciferin 4-monooxygenase (Photinus pyralis) (UniProt P08659)
# Sequence of UniProt P08659 (P08659 whole entry, looked up): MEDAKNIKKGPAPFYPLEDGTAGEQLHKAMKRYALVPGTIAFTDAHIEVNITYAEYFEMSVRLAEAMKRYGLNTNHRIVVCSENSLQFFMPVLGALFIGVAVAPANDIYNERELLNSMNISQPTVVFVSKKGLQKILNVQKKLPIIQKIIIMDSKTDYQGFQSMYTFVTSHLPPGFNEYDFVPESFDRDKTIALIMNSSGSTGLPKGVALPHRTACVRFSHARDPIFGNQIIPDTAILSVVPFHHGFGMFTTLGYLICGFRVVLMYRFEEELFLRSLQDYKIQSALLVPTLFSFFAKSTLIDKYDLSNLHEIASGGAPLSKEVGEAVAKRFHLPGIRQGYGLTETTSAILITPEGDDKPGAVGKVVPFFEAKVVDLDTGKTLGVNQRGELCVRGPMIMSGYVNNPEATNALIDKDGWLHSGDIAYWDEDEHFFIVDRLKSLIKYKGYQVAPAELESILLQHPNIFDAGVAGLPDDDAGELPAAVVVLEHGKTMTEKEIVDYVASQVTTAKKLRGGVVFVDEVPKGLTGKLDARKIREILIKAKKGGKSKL
# Assay: qHTS profiling assay for firefly luciferase inhibitor/activator using purifed enzyme and Km concentrations of substrates (counterscreen for miR-21 project); note: nearly all actives have a fitted effect of over 55% in size;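 for activity change, negative = inhibition: plate controls were vehicle for no effect and reference inhibitor for full effect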
# Details: purified FLuc, luminescence inhibition; series mostly up to 57.5 µM; activity change, negative = inhibition: at the top concentration
# Procedure, shortened: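 Purified P. pyralis luciferase (10nM final) with 10uM D-luciferin and 10uM ATP (Km levels) in 50mM Tris acetate pH 7.5, 10mM Mg acetate, 0.01% Tween-20, 0.05% BSA; qHTS 6-point titration, ~60 µM downward; luminescence read.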
# Potency is the fitted concentration of half-maximal effect; tags give direction and shape of the fitted curve.
SMILES,"activity change, negative = inhibition",Potency
CCN(CC)c1ccc(-n2nc3cc(C)c(NC(=O)c4ccccc4C)cc3n2)c(C)c1,inactive: 7.1%,
O=C(NC1CC2CCCC(C1)N2S(=O)(=O)c1ccccc1)c1ccco1 (stereo not drawn),inactive: 4.38%,
CCc1ccc(S(=O)(=O)NCc2nc3cccnc3n2Cc2cccc(OC)c2)cc1,inactive: -10.6%,
Cc1c(N2C(=O)C(=O)/C(=C(/O)c3ccc(Br)cc3)C2c2cccnc2)c(=O)n(-c2ccccc2)n1C (stereo not drawn),,"inconclusive: 9.53 µM [inhibitor, partial curve, poor fit]"
CN(C)c1ccc(Nc2nc3ccccc3n3nnnc23)cc1,,active: 6.75 µM
COc1ccccc1CNC(=O)CSc1ccccc1,,"inconclusive: 23.9 µM [inhibitor, partial curve]"
CCOc1ccc2nc(NS(C)(=O)=O)sc2c1,,active: 16.9 µM
Cc1sc(=NC(=O)c2ccco2)n(C)c1-c1ccccc1,,active: 0.953 µM
CC1CCc2[nH]c3ccc(C(=O)NCCCOC(C)C)cc3c2C1 (stereo not drawn),,"inconclusive: 15.1 µM [inhibitor, partial curve]"
CCOc1c(O)ccc(/C=C2\SC(=S)NC2=O)c1[N+](=O)[O-],,active: 13.5 µM
CCOc1ccc2nc(SCC(=O)NCc3ccco3)sc2c1,,"inconclusive: 19 µM [inhibitor, partial curve]"
Oc1ccc(COCc2ccc(F)cc2)c2cccnc12,,"inconclusive: 23.9 µM [inhibitor, single point]"
Cc1ccc(C)c(N(C)C(=O)Cc2c(C(=O)O)[nH]c3ccc(Cl)cc23)c1,,"inconclusive: 19 µM [inhibitor, partial curve, poor fit]"
CCOC(=O)CC1COCCN1C(=O)c1cc(COc2ccc(F)c(F)c2)on1 (stereo not drawn),,"inconclusive: 15.1 µM [inhibitor, partial curve]"
COc1ccc(C(=O)NCC(=O)OCc2csc(-c3ccccc3)n2)cc1,,active: 16.9 µM
Cc1[nH]n(-c2ncc(-c3ccccc3)s2)c(=O)c1C(c1ccc(Br)cc1)C(C#N)C#N (stereo not drawn),,"inconclusive: 23.9 µM [inhibitor, partial curve, poor fit]"
CC(C)N(C)CCOC(=O)C1COc2ccccc2O1 (stereo not drawn),inactive: 4.43%,
Cc1cc([N+](=O)[O-])c(C)cc1-c1ccc(/C=N/NC(=O)c2cccnc2)o1,,"inconclusive: 21.3 µM [inhibitor, partial curve, poor fit]"
CCOC(=O)C1CCN(C(=O)/C=C/c2ccccc2)CC1,,active: 23.9 µM
CSc1nc2sc(-c3ccccc3)cc2c(=O)n1N,,"inconclusive: 0.757 µM [inhibitor, full curve]"
COc1ccccc1CCC(=O)Nc1ccc2c(c1)CN(Cc1ccc(CO)o1)CC2,inactive: -9.98%,
N/C(=N\OC(=O)c1cccs1)c1ccc(Cl)cc1,,active: 4.78 µM
CSc1nc(=O)c2c(n1C)NC(=O)CC2c1cc(F)cc(F)c1 (stereo not drawn),inactive: -11.8%,
Cc1ccc(Cl)c(OCC(=O)NCc2ccco2)c1,,"inconclusive: 21.3 µM [inhibitor, single point]"
c1coc(C2Nc3cccc4cccc(c34)N2)c1,,active: 26.9 µM

SMILES,"activity change, negative = inhibition",Potency
CCCN(CC(=O)Nc1ccccc1OC)C(=O)C1=COCCO1,inactive: 8.02%,
Cc1cccc(SCc2noc(C(=O)NCC3CCCO3)c2C(=O)O)c1 (stereo not drawn),,"inconclusive: 37.9 µM [inhibitor, partial curve, poor fit]"
O=C(CN1C(=O)c2ccccc2C1=O)c1ccccc1,,"inconclusive: 21.3 µM [inhibitor, single point]"
CCCOc1ccc2c(c1)C(=NN=C(N)N)c1cc(OCCC)ccc1-2,,"inconclusive: 23.9 µM [inhibitor, single point]"
Cc1nc2cc(NCc3ccccc3O)ccc2n1Cc1ccccc1,,active: 23.9 µM
CCOc1ccc(Nc2oc(Cc3ccccc3)nc2C#N)cc1,,"inconclusive: 26.9 µM [inhibitor, single point]"
CCc1ccc(-c2nc(SCC(=O)N(C)C3CCS(=O)(=O)C3)n[nH]2)cc1 (stereo not drawn),,"inconclusive: 2.69 µM [inhibitor, partial curve]"
COc1ccc(Nc2cc(C(=O)NC3CCCC3)c3ccccc3n2)cc1,,"inconclusive: 8.49 µM [inhibitor, partial curve, poor fit]"
CCCCc1ccc(NC(=O)c2c(C)noc2C)cc1,,"inconclusive: 30.1 µM [inhibitor, single point]"
O=C(CCSCc1ccc(Cl)cc1)NCc1ccc(F)cc1Cl,,"inconclusive: 30.1 µM [inhibitor, partial curve, poor fit]"
CCOC(=O)c1c(C)[nH]c(C(=O)COC(=O)C(C)N2C(=O)C3CCCCC3C2=O)c1C (stereo not drawn),,"inconclusive: 37.9 µM [inhibitor, partial curve, poor fit]"
CCN(CC)S(=O)(=O)c1cc(C(=O)Nc2ccncc2)ccc1Cl,,"inconclusive: 23.9 µM [inhibitor, partial curve]"
COc1ccc(CC(=O)Nc2ccc(-c3noc(-c4cccc(OC)c4)n3)cc2)cc1,inactive: -1.61%,
CCc1nn2c(=O)c(S(=O)(=O)Nc3ccc(Br)cc3F)c(C)nc2s1,,"inconclusive: 30.1 µM [inhibitor, partial curve, poor fit]"
Cc1ccc(C(C[N+](=O)[O-])c2c(C)cc3ccccn23)cc1 (stereo not drawn),inactive: 0.648%,
CCOC(=O)c1sc2ccccc2c1S(=O)(=O)N1CCN(c2cc(C)ccc2C)CC1,inactive: -2.09%,
Cc1ccc(OCC(=O)N/N=C\c2ccc(C)o2)c([N+](=O)[O-])c1,,"inconclusive: 21.3 µM [inhibitor, single point]"
Cc1ccc(NC(=O)CN2CCOCC2)c(Br)c1,,"inconclusive: 21.3 µM [inhibitor, partial curve, poor fit]"
CC(OC(=O)C1CCCC1)C(=O)Nc1ncc(Cl)cc1Cl (stereo not drawn),inactive: 4.29%,
COc1ccc(OCC(=O)Nc2ccc3nn(-c4ccc(OC)cc4)nc3c2)cc1,,"inconclusive: 30.1 µM [inhibitor, partial curve, poor fit]"
Cc1cc(C(=O)COc2ccccc2Cl)c(C)n1C1CC1,,"inconclusive: 11.2 µM [inhibitor, partial curve, poor fit]"
Cc1nn(C(=O)c2cccc(F)c2)c(C)c1S(=O)(=O)N1CCOCC1,,"inconclusive: 26.9 µM [inhibitor, partial curve, poor fit]"
O=C(/C=C/NNC(=O)c1cccc(Br)c1)c1ccccc1,,"inconclusive: 23.9 µM [inhibitor, single point]"
CNc1cccccc1=S,,"inconclusive: 37.9 µM [inhibitor, partial curve, poor fit]"
Cc1cnc(NC(=O)c2ccc3c(c2)C(=O)N(Cc2ccco2)C3=O)s1,,"inconclusive: 9.53 µM [inhibitor, partial curve, poor fit]"

SMILES,"activity change, negative = inhibition",Potency
COc1ccccc1NC(=O)CSc1nnc(CC(=O)Nc2ccccc2)n1C,,"inconclusive: 30.1 µM [inhibitor, single point]"
CC1=C(C(=O)OCc2ccc(C)cc2)C(c2cccc(F)c2F)CC(=O)N1 (stereo not drawn),inactive: 2.08%,
Cc1ccc(-c2cc(C(=O)Nc3ccccc3C)c3ccccc3n2)o1,,active: 8.49 µM
COc1cccc2cc(CC(=O)c3ccccc3)c(=O)oc12,,active: 16.9 µM
CCN1C(=NCCCCO)N[C@@H](c2ccccc2)C(C(=O)OC)=C1C,inactive: 3.55%,
OCCn1c(-c2ccc3c(c2)OCO3)csc1=Nc1ccccc1,,"inconclusive: 26.9 µM [inhibitor, single point]"
Nc1c(C(=O)NCc2ccc(Cl)cc2)sc2nc(-c3ccc(F)cc3)ccc12,inactive: -1.24%,
Cc1cc(C)n(-c2nc3ccccc3s2)n1,,active: 21.3 µM
COc1ccc(NCc2nnc(SCC(=O)c3ccc(C)cc3)o2)cc1,,"inconclusive: 37.9 µM [inhibitor, single point]"
Cc1ccc(-c2cc(-c3ccccc3O)nc(N/N=C/c3cccnc3)n2)cc1,,"inconclusive: 0.953 µM [inhibitor, full curve]"
CCOc1cc(/C=N/O)ccc1OCc1ccc([N+](=O)[O-])cc1,,"inconclusive: 42.6 µM [inhibitor, partial curve, poor fit]"
CC(=O)NCCc1nc2cc(NS(=O)(=O)c3ccccc3)ccc2n1C,inactive: 0.466%,
COC(=O)c1ccccc1NC(=O)CSc1[nH]c(=O)cc(C)c1C#N,,"inconclusive: 37.9 µM [inhibitor, partial curve, poor fit]"
Cc1c(C(=O)N2CCc3ccccc3C2)oc2ccc(Br)cc12,,"inconclusive: 33.8 µM [inhibitor, partial curve, poor fit]"
CCNc1nc(NCC)nc(N/N=C/c2ccccc2)n1,,"inconclusive: 9.53 µM [inhibitor, partial curve, poor fit]"
Cc1ccc(CNC(=O)CN2CCN(Cc3ccc(F)cc3Cl)C2=O)cc1,inactive: -3.22%,
O=c1/c(=C\c2ccc(O)cc2)sc2n1C(c1ccccc1)C(c1ccccc1)=NN=2 (stereo not drawn),,"inconclusive: 23.9 µM [inhibitor, single point]"
O=C(CSc1nccn1Cc1ccco1)Nc1cc(C(F)(F)F)ccc1Cl,inactive: -14%,
O=C(c1ccc2c(Cl)c3c(nc2c1)CCCC3)N1CCN(c2cccc(C(F)(F)F)c2)CC1,inactive: -11.2%,
Cc1cc(C)nc(-n2nc(C)c(Sc3ccc(F)cc3)c2N)n1,,active: 10.7 µM
CN(CC(=O)NCc1ccco1)CC(=O)Nc1c(Cl)cccc1Cl,inactive: 2.62%,
CCOC(=O)C1CCCN(C(=O)Cn2sc3nc(C)cc(C)c3c2=O)C1 (stereo not drawn),,"inconclusive: 7.57 µM [inhibitor, partial curve]"
Nc1ccc2oc(=O)c(-c3ccccc3)cc2c1,,"inconclusive: 23.9 µM [inhibitor, partial curve]"
